# Source: PubChem BioAssay AID1508642 (National Center for Advancing Translational Sciences (NCATS), 2021)
# The whole screen tested about 43,000 compounds, of which about 200 (0.47%) were called active. Not shown: some 12% with an inconclusive outcome. The call rests on the fitted dose curve; in most records, active means well fitted cell-killing curve with a large enough effect; inconclusive means small, poorly fitted or top-dose-only effect, or effect the other way; inactive means flat fitted curve, though single readings scatter. The list shows a part of the results.
# Test: Cell viability qHTS assay in S16 Pmp22-F2sN cells; further: nearly all actives have a fitted effect of over 65% in size
# Conditions: S16 Pmp22-F2sN Schwann cells (luciferase reporters placed in the Pmp22 gene) viability, CellTiter-Glo, 24 h; series mostly up to 57.5 µM; activity change, negative = cytotoxicity: at the top concentration
# Summary of the method: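 Luminescence from CellTiter-Glo, read by CCD camera after a 15 min room-temperature incubation, served as the viability signal. Reporter Schwann cells (S16 Pmp22-F2sN) had been treated with pin-transferred compounds for 24 h at 37C.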
# On the % scale 0 is the no-effect control and ±100 the full control effect; potency means the concentration at half of the fitted maximal effect.
SMILES,"activity change, negative = cytotoxicity",Potency
Cc1cccc(OC(=O)CSc2nnc(CNC(=O)c3ccccc3)o2)c1C,inactive: 10.8%,–
O=C(Nc1ccc(F)cc1)c1oc2ccccc2c1NC(=O)C12CC3CC(CC(C3)C1)C2,inactive: 15.4%,–
COc1ccc(CCNC(=O)c2ccc3c(c2)N(Cc2c(F)cccc2Cl)C(=O)CS3)cc1OC,inactive: -5.71%,–
Cc1cccc(N2CCN(C(=O)CCc3nnc4n(CC(C)C)c(=O)c5ccccc5n34)CC2)c1C,inactive: -1.74%,–
COc1ccc(-c2cc(C)no2)cc1S(=O)(=O)N1CCOc2ccccc21,inactive: -3.61%,–
COc1ccc(-c2cn3c(n2)sc2cc(C(=O)Nc4ccc(C)c(C)c4)ccc23)cc1,inactive: 16%,–
O=C(Cc1ccccc1)N(Cc1cccnc1)c1nc2c(F)cc(F)cc2s1,inactive: -5.53%,–
O=C(CN1C(=O)COc2ccccc21)NCCc1ccc(Cl)cc1,inactive: 0.248%,–
CCOc1ccc(N(CC)S(=O)(=O)N2CCCC(C(=O)Nc3ccc(C(C)=O)cc3)C2)cc1 (stereo not given),inactive: -3.2%,–
COc1cccc(C(=O)c2c(N)c(-c3nc(-c4ccccc4)cs3)c3ccccn23)c1,inactive: 2.13%,–
Cc1cccc(-n2c(=O)c3c(c4cc(C)ccc4n3C)n(CC(=O)N3CCCC3)c2=O)c1,inactive: -1.5%,–
Cc1ccc(NC(=O)Cn2c(=O)n(Cc3nc(C)no3)c(=O)c3ccccc32)c(Cl)c1,inactive: -23.2%,–
CCOc1ccccc1NC(=O)c1nc(SC(C)C)ncc1Cl,inactive: -9.08%,–
CCc1ccc(NC(=O)CN2C(=O)C(c3ccc(Cl)cc3)=NC23CCCCC3)cc1,inactive: -21.7%,–
Cc1c(CNC2CCCCC2)c(C(=O)O)c(C)n1Cc1cccc(Cl)c1,inactive: 22.4%,–
Cc1ccc(CNC(=O)c2ccc(NC(=O)N3CCSc4ncccc43)cc2)cc1,inactive: -1.61%,–
CCc1ccc(-n2c(=O)c3c4c(sc3n(CC(=O)N3CCCCC3CC)c2=O)CCC4)cc1 (stereo not given),inactive: -0.611%,–
Cc1cccc(/C=C(\C#N)c2nc3ccccc3c(=O)[nH]2)c1,inactive: 0.3%,–
COc1cc(NC(=O)CCS(=O)(=O)c2ccc3c(c2)CC(=O)N3C)cc(OC)c1OC,inactive: 19.7%,–
CCOc1ccc(-c2cc(C(=O)Oc3ccc(C#N)cc3)no2)cc1,inactive: 1.31%,–
COc1ccc(/C=C/c2nc(C#N)c(NCc3ccc(F)cc3)o2)cc1OC,inactive: 1.5%,–
Cc1ccccc1Nc1c(-c2cc(Br)ccc2F)nc2ccccn12,inactive: -1.55%,–
CCOC(=O)C1CCC(CN(Cc2ccccc2)S(=O)(=O)c2ccc(Br)cc2)CC1 (stereo not given),inactive: -17.4%,–
CCCN1Cc2cccc(C(=O)Nc3ccc(C(C)=O)cc3)c2C1=O,inactive: -19.4%,–

SMILES,"activity change, negative = cytotoxicity",Potency
COc1ccc(N2CCN(CCCNC(=O)c3cc(Nc4ccc(OC)cc4OC)nc4ccccc34)CC2)cc1,inactive: -14.5%,–
Fc1ccccc1Cc1cn2cc(-c3ccc(Cl)cc3)nc2s1,inactive: 14.1%,–
COc1ccccc1Cn1c(CNS(=O)(=O)c2ccc(C(C)C)cc2)nc2cccnc21,inactive: -6.71%,–
CCC(=O)N1CCCc2cc(S(=O)(=O)N3CCC(C(=O)NC4CCCCC4)CC3)ccc21,inactive: -2.71%,–
COc1ccc(CNC(=O)c2nc(SCc3ccccc3F)ncc2Cl)cc1,inactive: -1.76%,–
COc1ccccc1NC(=O)c1oc2ccccc2c1NC(=O)c1cccc(OC)c1OC,inactive: -22.3%,–
CCCS(=O)(=O)N1CC(=O)N(c2cccc(Cl)c2C)C(C)(C(=O)NC2CCCC2)C1 (stereo not given),inactive: 12.1%,–
Cc1cc(-c2ccc(C)c(S(=O)(=O)NCc3cccc(Br)c3)c2)on1,inactive: -4.97%,–
Cc1cc(C)cc(OCC(=O)N(Cc2cccs2)c2ccc(Cl)cc2)c1,inactive: -10.5%,–
CCC(Oc1ccccc1)C(=O)Nc1cc(-c2cccc(C)c2)nn1-c1ccccc1 (stereo not given),inactive: 18.8%,–
COc1ccc(-n2c(C)c(C(C)=O)c3cc(OC(=O)COc4ccccc4)ccc32)cc1,inactive: -5.97%,–
COc1ccc(-n2nc(C(=O)N3CCN(c4cccc(C)c4C)CC3)c3c4ccccc4n(C)c3c2=O)cc1Cl,inactive: -0.0531%,–
Cc1ccc(CNC(=O)Cc2c(C)c3c(cc(C)c4c(C)coc43)oc2=O)cc1,inactive: -3.47%,–
COc1cccc(CNC(=O)Cn2ncn3nc(-c4cccs4)cc3c2=O)c1OC,inactive: -26.9%,–
Fc1ccc(-c2nn(-c3ccccc3Cl)c3c2cnc2ccccc23)cc1,inactive: -0.621%,–
Cc1ccc2onc(CC(=O)N3CCN(c4cc(Cl)ccc4C)CC3)c2c1,inactive: 0.945%,–
Cc1ccc(-n2ncc(C(=O)NCCN3CCCC3)c2C2CCN(C(=O)OC(C)(C)C)CC2)cc1C,inactive: -0.274%,–
CCc1ccccc1-n1c(C)nc2cc(C(=O)NCCc3ccc(Cl)cc3)ccc21,inactive: -10.2%,–
Cc1ccc(CNC(=O)C2CCN(S(=O)(=O)c3cn(C)cn3)CC2)cc1,inactive: -25.6%,–
CC(C)OCCCNC(=O)CN1C(=O)COc2ccc(S(=O)(=O)N3CCCCCC3)cc21,inactive: 15.6%,–
COCCCNC(=O)CCc1c(C)nc2nc(-c3cc(OC)cc(OC)c3)nn2c1C,inactive: 14.7%,–
CC(C)N(Cc1ccccc1)S(=O)(=O)c1ccc(-c2cc(C(F)(F)F)on2)s1,inactive: 13.4%,–
COC(=O)c1ccc2c(c1)N(Cc1ccc(Cl)cc1)C(=O)c1ccccc1S2,inactive: 6.05%,–
Cc1nc2nc(SCC(=O)NC3CCCCC3)nn2c(C)c1Cc1ccccc1Cl,inactive: 18.5%,–

SMILES,"activity change, negative = cytotoxicity",Potency
COCCNc1nc2c(c(=O)n(Cc3cccc(Br)c3)c(=O)n2C)n1C,inactive: 3.42%,–
CC(C)c1ccc(Nc2ncnc3onc(-c4ccc(F)cc4)c23)cc1,inactive: -1.14%,–
Cc1cc(Cl)ccc1NC(=O)Cn1nnc2sc(-c3ccccc3)cc2c1=O,inactive: 3.84%,–
COc1ccc(OC)c2sc(N3CCN(C(=O)CCS(=O)(=O)c4ccc(F)cc4)CC3)nc12,inactive: -19%,–
CCCn1c2ccccc2c2cnn(CC(=O)N3CCCC(C)C3)c(=O)c21 (stereo not given),inactive: -2.91%,–
COc1cccc(N2CCN(C(=O)c3cc4c(=O)oc5ccc(C)cc5c4s3)CC2)c1,inactive: 0.411%,–
CCCCn1nc(NC(=O)c2cccc(Cl)c2)c2cc3cccc(C)c3nc21,inactive: 6.54%,–
Cc1ccc(C(=O)c2cn(CC(=O)NCc3ccccc3Cl)c3nc(C)ccc3c2=O)cc1,inactive: -13.1%,–
CCCC(=O)NC(C)c1nc2ccccc2n1Cc1ccccc1 (stereo not given),inactive: 1.74%,–
CCOC(=O)c1c(C)[nH]c(C)c1S(=O)(=O)N1CCCC(C(=O)NCc2cccc(OC)c2)C1 (stereo not given),inactive: -1.45%,–
Cc1cc(C(=O)N2CCN(c3cccc(C)c3C)CC2)c2c(C)nn(-c3ccccc3)c2n1,inactive: -6.23%,–
CCOC(=O)c1sc(NC(=O)C2c3ccccc3Oc3ccccc32)c(C#N)c1C,inactive: -1.7%,–
COc1cccc(-c2ccc3c(N)c(C(=O)Nc4cc(C(F)(F)F)ccc4OC)sc3n2)c1,inactive: -7.11%,–
Cc1c(C(=O)N(C)C)sc2c1c(=O)n(-c1ccc(Cl)cc1)c(=O)n2Cc1ccccc1F,inactive: 1.46%,–
Cc1cccc(OCC(=O)Nc2cc(-c3ccccc3F)nn2-c2ccccc2)c1,inactive: -1.63%,–
COc1ccccc1CNC(=O)CCC1N=C2c3ccccc3N=C(SCC(=O)Nc3ccc(N(C)C)cc3)N2C1=O (stereo not given),inactive: -21%,–
CCOC(=O)c1cc(-c2ccc(OC)cc2)n(CCC(=O)NCc2ccc(OC)cc2)c1C,inactive: -23%,–
CC(C)NC(=O)N1CCN(S(=O)(=O)c2ccc3c(ccn3C)c2)CC1,inactive: 0.226%,–
Cc1ccc(C)c(NC(=O)CN(C)S(=O)(=O)c2ccc3c(c2)CCC(=O)N3)c1,inactive: 4.49%,–
CCCS(=O)(=O)c1nc(S(=O)(=O)c2ccc(C)cc2)c(N(C)Cc2ccccc2)s1,inactive: -23.9%,–
Cc1ccccc1C(=O)Nc1nnc2n1CCS2,inactive: 6.33%,–
CCN1C(=O)c2ccccc2S(=O)c2ccc(C(=O)NCc3ccc(OC)cc3)cc21 (stereo not given),inactive: 1.05%,–
Cc1ccc(C)c2sc(NC(=O)c3ccc(S(=O)(=O)N4CCC(C)CC4)cc3)nc12,inactive: -14.9%,–
O=C(CSc1nc2cc(C(=O)NC3CCCC3)ccc2c(=O)n1CC1CCCO1)c1cccc(Cl)c1 (stereo not given),–,active: 28.2 µM

SMILES,"activity change, negative = cytotoxicity",Potency
COc1ccccc1NC(=O)CSc1nnc(N)s1,inactive: -1.49%,–
COc1ccc(OC)c(CCNC(=O)CS(=O)(=O)Cc2nc(-c3cccc(Cl)c3)oc2C)c1,inactive: -1.99%,–
COc1ccc(CCNc2oc(/C=C/c3cc(OC)c(OC)c(OC)c3)nc2C#N)cc1OC,inactive: -18.3%,–
Cc1ccc(Sc2c(C)nn(-c3ccccc3)c2OC(=O)C(C)(C)C)cc1,inactive: -17.3%,–
CCOc1ccc(NC(=O)CC2C(=O)N(c3ccc(F)cc3)C(=O)N2Cc2ccc(OC)c(OC)c2)cc1 (stereo not given),inactive: 10.8%,–
COc1ccc(OC)c(NS(=O)(=O)c2cc3c(cc2Cl)N(C(C)=O)CCO3)c1,inactive: -4.21%,–
COC(=O)c1c(NC(=O)C(C)Oc2ccc(Cl)c(C)c2)sc(C)c1C (stereo not given),inactive: 0.0514%,–
CCc1ccc(CNC(=O)c2cc(=O)[nH]c3ccc(S(=O)(=O)N4CCCCC4)cc23)cc1,inactive: 13.6%,–
Cc1c(Cl)ccc2sc(N3CCN(C(=O)C(C)C)CC3)nc12,inactive: -24.4%,–
CCOC(=O)c1c(C)oc2nc(C)nc(Nc3ccc(C)c(Cl)c3)c12,inactive: -0.252%,–
CCOC(=O)c1c(NC(=O)c2cc(C(C)C)on2)sc(C(C)=O)c1C,inactive: 5.03%,–
CCOc1ccccc1NC(=O)NCc1ccc2c(c1)CCN2C(=O)c1ccccc1,inactive: -27.1%,–
COc1ccc(/C=C\c2onc(C)c2S(=O)(=O)N2CCC(C(=O)Nc3ccc(F)cc3F)CC2)cc1,inactive: 8.31%,–
Cc1ccc(-c2nc3nc(C)cc(N4CCN(c5cccc(C)c5C)CC4)n3n2)cc1,inactive: -4.46%,–
CN(C)c1ccc(CN(Cc2ccco2)C(=O)c2ccc(C(C)(C)C)cc2)cc1,inactive: -15%,–
Cc1oc(-c2cccc(Cl)c2)nc1CSc1nncn2c1cc1occc12,inactive: 6.88%,–
CN(Cc1ccccc1)C(=O)c1cn(C)c2ccc(S(=O)(=O)N3CCCCC3)cc2c1=O,inactive: -12.6%,–
COc1cccc(OCc2nc3ccccc3n2CCOc2ccc(C)cc2)c1,inactive: 5.6%,–
COc1cccc(CNC(=O)c2cc(C)nc3c2c(C)nn3-c2ccc(C)cc2)c1,inactive: 0.803%,–
COc1ccc(OC)c(NC(=O)CSc2ccc(-c3cccs3)nn2)c1,inactive: 3.96%,–
COc1cc(OC)c(NC(=O)C2CCN(S(=O)(=O)c3c(C)noc3/C=C/c3c(C)cc(C)cc3C)CC2)cc1Cl,inactive: 1.4%,–
CC12CN3CC(c4ccccc4)(CN(C1)C3c1ccc(O)cc1)C2=O (stereo not given),inactive: 5.01%,–
Cn1c(=O)oc2cc(S(=O)(=O)NC(Cc3ccccc3)C(=O)Nc3ccc(F)cc3)ccc21 (stereo not given),inactive: -8.05%,–
